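Interpolation was linear, between the two tested concentrations surrounding the appropriate level; five concentrations were tested over 48 hours in 96-well plates. The concentration for 50% growth inhibition is given as GI50.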 Active and inactive are the calls of the source. Cut-off read from the data, not from the text of the source: active = GI50 up to about 1.1 µM and inactive = higher.
These compounds were tested on NCI-H322M (assay: growth of human tumour cells (NCI), 48 h).

Row | SMILES | GI50
1 | CC(C)(CO)CNc1cc(Cl)nc(N)n1 | inactive: > 100 µM
2 | CSc1c([S+](C)[O-])c2ccccc2n1C (centres undefined) | inactive: > 100 µM
3 | COc1ccc(C(O)c2ccc3c(c2)OCO3)cc1 (centres undefined) | inactive: > 100 µM
4 | CCC(C)NC1=C(NC(C)=O)C(=O)c2ccccc2C1=O (centres undefined) | inactive: > 75 µM
5 | CC1C(c2ccccc2)OP(=O)(OC(C#N)c2ccccc2)N1C (centres undefined) | inactive: > 100 µM
6 | COc1ccc2c(c1)CN1C(=N2)CSC1c1cc([N+](=O)[O-])ccc1Cl (centres undefined) | inactive: 33.5 µM
7 | [O-][n+]1cn[n+]([O-])c2ccccc21 | inactive: > 100 µM
8 | COC(=O)[C@@H]1[C@H](OC(C)=O)CCC2[C@@]3(C[C@@H](c4ccoc4)O[C@@H]3OC)[C@H](C)CC[C@]21C(=O)OC (some centres undefined) | inactive: > 25 µM
9 | COC(=O)c1ccccc1C1CN=NC12Cc1cc(C)ccc1C2=O (centres undefined) | inactive: > 100 µM
10 | COc1cc(/C=C2\Sc3scc(-c4cccc([N+](=O)[O-])c4)[n+]3C2=O)cc(OC)c1OC | inactive: 24.9 µM
11 | CCOP(=O)(OCC)C1CC(O)C(=O)N1 (centres undefined) | inactive: > 100 µM
12 | CCOC(=O)c1c(N2CCCC2)nsc1Nc1ccccc1 | inactive: > 100 µM
13 | CCCNC(=S)NNC(=O)CSc1nc(-c2ccccc2)c(-c2ccccc2)[nH]1 | inactive: 60.4 µM
14 | COC(OC)[C@@H]1OC[C@H](n2cnc3c(N)ncnc32)[C@H]1O | inactive: > 100 µM
15 | NS(=O)(=O)c1ccc(Nc2c3ccccc3nc3c(C(=O)N4CCN(CCO)CC4)cccc23)cc1 | inactive: > 100 µM
16 | CCCCCCCCCC/C=C/CC(=O)SCCNC(=O)CCNC(=O)[C@@H](O)C(C)(C)COP(=O)(O)OP(=O)(O)OCC1OC(n2cnc3c(N)ncnc32)C(O)C1OP(=O)(O)O (some centres undefined) | inactive: > 10 µM
17 | COC(=O)c1cc2/c(=N/O)c3ccccc3sc2o1 | inactive: > 100 µM
18 | Cn1c(-c2ccccc2)cc(-c2ccc3c(c2)OCO3)c1-c1ccsc1 | inactive: > 100 µM
19 | COC(=O)C1CC2c3c(c4ccccc4n3C)CC(C1=O)N2C (centres undefined) | inactive: 84.3 µM
20 | Cc1c(C)c(CC(=O)N2CC2)c(C)c(C)c1CC(=O)N1CC1 | inactive: 20.1 µM
21 | CC(Oc1ccccc1Cl)C(=O)NN1C(=O)CC(=O)NC1=S (centres undefined) | inactive: > 100 µM
22 | O=c1c2cc(Cl)cc(Cl)c2oc2nc3n(c(=O)c12)CCCS3 | inactive: > 100 µM
23 | Cc1cccc(C)c1NC(=O)C(=O)C1C(=O)NC(=O)NC1=O | inactive: > 100 µM
24 | O=C(c1ccccc1)c1ccc2c(c1)nc1n2C(c2c(Cl)cccc2Cl)SC1 (centres undefined) | inactive: > 100 µM
25 | c1sc(NC2=NCCO2)c2c1CCCC2 | inactive: > 100 µM

Row | SMILES | GI50
26 | Cn1ccnc1C(O)(c1nccn1C)c1nccn1C | inactive: > 100 µM
27 | COC(=O)[C@H]1COC(=O)N1 | inactive: > 100 µM
28 | O=C(O)CCCNc1ncc2c(n1)-c1ccccc1OC2 | inactive: > 100 µM
29 | CN1C(=O)CCC2[C@@H]3CC=C4C[C@@H](O)CC[C@]4(C)C3CC[C@@]21C (some centres undefined) | inactive: 36.6 µM
30 | COc1cc(/C=C2\CCC(CN(C)C)C2=O)ccc1OC(=O)c1ccccc1 (centres undefined) | inactive: 17.8 µM
31 | CC1CC[P+](c2ccccc2)(c2ccccc2)CC1 | inactive: > 100 µM
32 | CC1(C)Oc2ccc3c(=O)c(-c4ccccc4)c(-c4ccccc4)oc3c2C1C(=O)O (centres undefined) | inactive: > 100 µM
33 | CCOC(=O)C(Cc1ccccc1)(Cc1ccc(O)cn1)NC(=O)c1ccccc1 (centres undefined) | inactive: 24.4 µM
34 | CCOc1cc(-c2nc3cc(F)ccc3s2)ccc1O | inactive: 15.2 µM
35 | OC(c1ccc(F)cc1)C(F)(F)c1nc2ccccc2o1 (centres undefined) | inactive: > 100 µM
36 | COP(=O)(OC)/C(=C/c1c[nH]c2ccccc12)C(=O)O | inactive: > 100 µM
37 | COc1ccc(-n2c(N)c(C#N)[nH]c2=O)cc1 | inactive: > 10 µM
38 | COc1ccc(/N=C2\C(=N/c3ccc(OC)cc3)N(S(=O)(=O)c3ccccc3)C(=S)N2c2ccccc2)cc1 | inactive: > 100 µM
39 | CC(C)=C=CC(C)(C)NS(=O)(=O)NC(C)(C)C=C=C(C)C | inactive: > 100 µM
40 | CC(=O)OCC1OC(n2c(=S)n(-c3ccccc3)c(=O)c3cc(Br)cc(Br)c32)C(OC(C)=O)C(OC(C)=O)C1OC(C)=O (centres undefined) | inactive: > 100 µM
41 | O/N=N/c1ccccn1.OCC1OC2OC3C(CO)OC(OC4C(CO)OC(OC5C(CO)OC(OC6C(CO)OC(OC7C(CO)OC(OC1C(O)C2O)C(O)C7O)C(O)C6O)C(O)C5O)C(O)C4O)C(O)C3O (centres undefined) | inactive: > 100 µM
42 | C[C@@H]1[C@H](c2ccccc2)O[B-]2(c3ccc(Br)cc3)OC(=O)C[N+]12C (some centres undefined) | inactive: > 100 µM
43 | COc1ccc(C2Oc3c(cc(O)c(OC)c3C)[C@@H]2C)cc1OC (some centres undefined) | inactive: > 100 µM
44 | COc1ccc2c(CC(=O)O)cc(=O)oc2c1 | inactive: > 100 µM
45 | C[n+]1ccc(Nc2ccc(NC(=O)c3ccc(Nc4cc[n+](C)c5ccc([N+](=O)[O-])cc45)cc3[N+](=O)[O-])cc2)cc1 | inactive: > 100 µM
46 | COc1ccccc1-c1nc(O)c2ccccc2n1 | inactive: > 100 µM
47 | Clc1ccc2c(NCCNC3CCCCC3)ccnc2c1 | inactive: 10.8 µM
48 | Cc1c2cc[n+](C)cc2c(C)c2c1[nH]c1ccc(OCC(F)(F)F)cc12 | inactive: 7.76 µM
49 | CCCCCCCCCCCC(=O)c1c(O)cc(C)oc1=O | inactive: 61.4 µM

Reference: ChEMBL document CHEMBL1201862, “PubChem BioAssay data set” (2004)
